The text below walks through data of ChEMBL document CHEMBL4888484, “Replenishing the malaria drug discovery pipeline: Screening and hit evaluation of the MMV Hit Generation Library 1 (HGL1) against asexual blood stage Plasmodium falciparum ,using a nano luciferase reporter read-out” (2022).

In all, about 150,000 compounds went through this assay and about 540 (0.36%) showed an effect of 50% or more. The list shows a part of the results.

The subject of the assay is Plasmodium falciparum. In words: Primary screen in NF54 nanoGlo assay, in single point, at 2uM, 72h; a lower Z score goes with more inhibition. It is filed as functional, Erythrocyte. The note with it: timepoint 72 hour.
As to `OC[C@H]1CCCN(C2CCN(Cc3nc(-c4cccs4)no3)CC2)C1`, the % Inhibition (commonly the relative decrease from the control value, in per cent) is 3% and the Z score is -0.39.
For `CCN(CC)Cc1nc(C2(NS(=O)(=O)N(C)C)CCCC2)no1` the same measures were 0% and -0.08.
Turning to `O=C(NCCCNC(=O)C1CCCC1)C1CCCC1`, the “% Inhibition” value worked out at 7% and the Z score is listed as -0.82.
As to `O=C(Nc1cccc2c1CCCC2)c1cnccn1`, the “% Inhibition” value is listed as 12% and the Z score is given as -1.36.
For the compound `CC(C)(C)C(=O)CC(=O)Nc1cc(N)ccc1Cl`, the “% Inhibition” value is listed as -21% and the Z score came out at 2.69.
For `CCOc1ccccc1NC(=O)N1CCCn2nc(C)cc21` the same measures were 5% and -0.63.
For `CCOCCN(C)Cc1cnc2ccc(Br)cn12` the same measures were -19% and 2.12.
For `CC(C)Cc1nnc(NC(=O)[C@@H]2Cc3ccccc3C(=O)O2)s1`, the “% Inhibition” value is listed as -4% and the Z score is listed as 0.6.
In the case of `CC(=O)c1ccc(N2CCN(/C(=N\c3cccc(C(=O)O)c3)NC[C@H]3CCCO3)CC2)cc1`, the “% Inhibition” value was -24% and the Z score turned out to be 2.24.
For `CCn1cc(CC(=O)NC23CCCC2N(c2nc(C)nc(N(C)C)n2)CC3)nn1` (stereo not given) the same measures were 13% and -1.62.
On to `CCc1ccccc1CC(=O)N(Cc1cccnc1)[C@H]1CCS(=O)(=O)C1`, for which the “% Inhibition” value is on record as -1% and the Z score is reported as 0.19.
Consider `CC(C)c1nccn1CC(=O)N[C@H]1CCN(c2ncc[nH]c2=O)C1`, for which the “% Inhibition” value is given as 0% and the Z score was -0.02.
As for `O=C(C1CCOCC1)N1CCOc2ccc(N3CCOCC3)cc2C1`, the “% Inhibition” value is reported as -8% and the Z score came out at 1.53.
For `Cc1cccnc1C(F)(F)C(=O)Nc1cc(C)c(O)c(C)c1` the same measures were 32% and -1.21.
Take `CC(C)c1c(C(=O)N2CCN(c3ccc(F)cc3)CC2)cnn1-c1nccc(-c2cccs2)n1`: the “% Inhibition” value was 18% and the Z score was -2.31.
On to `COc1nc2c(cc1CN[C@@H](C)CC(F)(F)F)C(=O)N(C1CCCC1)C2`, for which the “% Inhibition” value was -10% and the Z score stood at 1.38.
For `Cc1ccc(C(=O)N2CCC3(CC2)C[C@@H]3NC(=O)C(C)C)cc1F` the same measures were -12% and 1.53.
On to `COc1ccc(C2=C(C)C(N3CCN(c4ccc(F)cc4)CC3)=NS2(=O)=O)cc1`, for which the “% Inhibition” value is on record as -12% and the Z score was determined as 1.69.
Consider `Cn1ccc2ccn(CCNC(=O)CNC(=O)OCc3ccccc3)c(=O)c21`, for which the “% Inhibition” value was -4% and the Z score was 0.71.
`Cc1cc(C(=O)N[C@@H](CO)CC(C)C)ns1`: the “% Inhibition” value is given as -6% and the Z score worked out at 0.92.
Regarding `CCCN(CCC)S(=O)(=O)c1sc2c(c1C(=O)O)CCNC2`, the “% Inhibition” value is listed as -1% and the Z score turned out to be 0.16.
Turning to `CC[C@H]1COCCN1C(=O)c1ccc2sccc2c1`, the “% Inhibition” value was 1% and the Z score is recorded as -0.2.
`CCc1cc(N2CCC[C@H](Nc3ccc4c(c3)OCCO4)C2)nc(C)n1`: the “% Inhibition” value is recorded as -17% and the Z score worked out at 3.53.
Consider `COc1ccc(C(C)=O)cc1CN1CCCS1(=O)=O`, for which the “% Inhibition” value is reported as -4% and the Z score is listed as 0.69.
In the case of `CC[C@@H](CO)NCc1cccc(OC)c1OCC(=O)NC(C)(C)C`, the “% Inhibition” value was 42% and the Z score was -5.63.
Turning to `CC(NC(=O)CN1CCCCC1Cn1cncn1)c1cccs1` (stereo not given), the “% Inhibition” value is -1% and the Z score is on record as 0.13.
Consider `CCc1cc(CNC(=O)N[C@H]2COc3c2ccc(C)c3C)on1`, for which the “% Inhibition” value was -5% and the Z score is listed as 0.69.
Regarding `Cc1c(C(=O)N[C@H]2CC23CC3)c2ccccc2[nH]c1=O`, the “% Inhibition” value stood at 1% and the Z score is -0.21.
For `COc1cccc([C@H]2CC(O)=Nc3c2ncn3-c2ccc(F)cc2)c1` the same measures were 29% and -3.23.
Consider `NC(=O)[C@@H](c1ccc(F)cc1)N1CCc2ccccc21`, for which the “% Inhibition” value was -17% and the Z score amounted to 1.43.
As to `Cc1cccc(N2CCN(C(=O)C3CCN(c4ncnc5onc(C)c45)CC3)CC2)c1C`, the “% Inhibition” value is listed as -7% and the Z score worked out at 0.91.
For the compound `COc1ccccc1-c1nnc(CC(=O)N[C@@H]2CCCCC[C@H]2O)o1`, the “% Inhibition” value is reported as -3% and the Z score was 0.39.
As to `N#Cc1cc2c(cc1-c1cc3c(cc1C(=O)C1CC1)OCCO3)OCCO2`, the “% Inhibition” value is listed as -3% and the Z score was 0.37.
Take `CCn1cc(CCN2C(=O)N[C@@](C)(COC)C2=O)cn1`: the “% Inhibition” value was -2% and the Z score amounted to 0.26.
On to `CCC#CCN1CCC(CNC(=O)c2c(Cl)cnn2C)CC1`, for which the “% Inhibition” value is recorded as 1% and the Z score is listed as -0.13.
In the case of `C[C@@H](Cc1cccnc1)NC(=O)Nc1cn(C)nc1C(F)(F)F`, the “% Inhibition” value is 7% and the Z score is listed as -0.73.
As for `COc1ccc(CN2CCCN(c3ccc(NC(=O)OCc4ccccc4)cc3)C2=O)cc1`, the “% Inhibition” value was -15% and the Z score stood at 1.44.
Turning to `CCC[C@H]1COCCN1C(=O)c1cccc(-c2cc(C)c(OC)cc2C)c1`, the “% Inhibition” value is -8% and the Z score was 1.52.
Consider `O=C(c1ccco1)N1CCCn2nc(-c3ccncc3)cc2C1`, for which the “% Inhibition” value was -21% and the Z score is 3.95.
For `NC(=NOCc1cnc2ccccc2c1)C1CCCC1` the same measures were -5% and 0.56.
For `Cc1nc(Cc2c(C)noc2C)n(-c2ccncc2)n1`, the “% Inhibition” value is on record as -10% and the Z score turned out to be 1.96.
In the case of `CO[C@@H](CN(C)C1CCN(c2cnccn2)CC1)c1ccccc1`, the “% Inhibition” value was -7% and the Z score is 0.84.
Take `c1cncc(C2CC(NCc3noc4c3CCCC4)C2)c1` (stereo not given): the “% Inhibition” value is 2% and the Z score was -0.3.
Take `Cn1c(=O)c2sccc2n(CC(=O)NC2CCCC2)c1=O`: the “% Inhibition” value amounted to 26% and the Z score is -2.99.
For the compound `O=C(c1cnc(-c2ccccn2)nc1O)N1CCN(c2ccc(F)cc2)CC1`, the “% Inhibition” value is 1% and the Z score is recorded as -0.08.
`CC(C)Cc1nc(C2(C)COC2)n(-c2ccc3c(c2)OCO3)n1`: the “% Inhibition” value is reported as 4% and the Z score is -0.76.
On to `Cc1ccc2cc(CN(CCCN3CCCC3=O)C(=O)CC3CCCC3)c(N3CCC[C@H](O)C3)nc2c1`, for which the “% Inhibition” value was -11% and the Z score came out at 1.41.
In the case of `COc1ccc(S(=O)(=O)NC2(c3noc(C4CC4)n3)CCCC2)cc1`, the “% Inhibition” value was -4% and the Z score turned out to be 0.45.
Regarding `CC1CN(C(=O)NCc2nccc(C(F)(F)F)n2)C(C)CO1` (stereo not given), the “% Inhibition” value was -2% and the Z score is recorded as 0.15.
In the case of `Cc1c(C(=O)Nc2ccccc2)[n+]([O-])cn1-c1ccc(CC(=O)O)cc1`, the “% Inhibition” value is 4% and the Z score is -0.68.
`COc1ccccc1/N=C(/NC(=O)c1ccc(F)cc1)N1CCN(c2cc(C)ccc2C)CC1`: the “% Inhibition” value is listed as -9% and the Z score is 1.71.
For `O=C(NCCn1ccc(-c2cnccn2)n1)c1ccco1`, the “% Inhibition” value is given as 20% and the Z score was -2.5.
For `Cn1cncc1C(=O)N1CCCCCC12CN(C(=O)OC(C)(C)C)C2` the same measures were 0% and -0.03.
With `CCOC(=O)N1CCC(NC(=O)C(=O)Nc2ccc(OC)c(Cl)c2)CC1`, the “% Inhibition” value turned out to be 1% and the Z score is recorded as -0.1.
For `CC1C(C)S(=O)(=O)CCN1C(=O)NC1CC(c2ccccc2)C1` (stereo not given) the same measures were -7% and 1.34.
For `CCNC(=O)C1=CCN(C(=O)NC2CCCCC2)CC1` the same measures were 5% and -0.94.
On to `C[C@@H](NS(=O)(=O)c1c(F)cccc1F)c1ccc(Cl)cn1`, for which the “% Inhibition” value is 1% and the Z score is reported as -0.17.
Take `O=C(Nc1ccc2c(c1)N(C(=O)c1ccccc1)CCC2)c1ccc(F)cc1`: the “% Inhibition” value stood at 7% and the Z score is reported as -0.71.
Consider `Cc1cc(C)c(S(=O)(=O)N2CCC(C(=O)O[C@@H](C)C(=O)Nc3ccccc3-c3ccccc3)CC2)c(C)c1`, for which the “% Inhibition” value is reported as -9% and the Z score is on record as 1.55.
Take `Cn1cncc1C(=O)Nc1ccc(O[C@@H]2CCCC[C@H]2O)cc1`: the “% Inhibition” value is listed as -11% and the Z score is recorded as 1.1.
As to `COc1ccc(S(=O)(=O)N(Cc2cccs2)Cc2cccs2)cc1`, the “% Inhibition” value was 31% and the Z score is -3.99.
Consider `CN(C)C[C@H]1CN(c2ncnc3c2CCC3)CCO1`, for which the “% Inhibition” value is listed as -4% and the Z score came to 0.66.
Take `COc1ccccc1NC(=O)c1ccc2c(c1)nnn2C1CCCC1`: the “% Inhibition” value was -7% and the Z score came to 0.93.
For `CCN1CC2(CCN(C(=O)c3ccccc3)CC2)C[C@@H](c2ccccc2)C1=O` the same measures were -5% and 0.44.
For `Cc1cc(C(F)(F)F)nn1-c1nccn(C)c1=O` the same measures were -7% and 1.12.
For `O=C(O)[C@@H]1CCCN1C(=O)c1ccccc1N1C(=O)[C@@H]2Cc3c([nH]c4ccccc34)C(c3cccc(Cl)c3)N2C1=O` (stereo not given in full) the same measures were -2% and 0.27.
With `COc1ccc(CC(=O)Nc2cc(-c3cccnc3)no2)cc1`, the “% Inhibition” value was determined as 0% and the Z score turned out to be 0.04.
With `CC(C)(C)C(=O)NCc1nccnc1-c1ccoc1`, the “% Inhibition” value was found to be 21% and the Z score is listed as -2.62.
On to `Cc1cn2cc(NC(=O)N[C@H](CCO)c3ccccc3)ccc2n1`, for which the “% Inhibition” value was -3% and the Z score is on record as 0.44.
For `Cc1n[nH]c(C)c1[C@@H](C)CC(=O)N(C)Cc1nccn1CC(F)(F)F`, the “% Inhibition” value was -12% and the Z score came to 1.45.
As for `CN(C)C(=O)Cc1ccc(NS(C)(=O)=O)cc1`, the “% Inhibition” value was 0% and the Z score came out at 0.04.
Turning to `CCN(CC1CCOCC1)C(=O)c1ccc(Cl)cn1`, the “% Inhibition” value is -8% and the Z score was 1.13.
For `O=C(C(=O)N1CCC2CCCC21)N1CCN(C2CC2)CC1` (stereo not given), the “% Inhibition” value came to 2% and the Z score was -0.32.
As to `O=C(Nc1nnc(-c2ccc3c(c2)OCO3)o1)c1cccs1`, the “% Inhibition” value was -15% and the Z score is given as 2.16.
`CC(C)CCn1cc(C(=O)N2CCN(c3cccc(F)c3)C[C@@H]2C)nn1`: the “% Inhibition” value is -1% and the Z score is recorded as 0.16.
For `CS(=O)(=O)c1ccc2nc(NC(=O)c3cc(=O)[nH]c4ccccc34)sc2c1`, the “% Inhibition” value is recorded as -5% and the Z score is on record as 0.67.
Regarding `Cc1cc(C)c(C(=O)N2CC3CCCCC3C2)c(=O)[nH]1` (stereo not given), the “% Inhibition” value is given as 32% and the Z score is recorded as -3.61.
For `O=C([C@@H]1CNCCN1C(=O)CCn1nnc2ccccc21)N1CCOCC1` the same measures were -15% and 1.87.
Regarding `CC1CC(c2ccccc2F)N(C(=O)CN2CCNCC2=O)C1` (stereo not given), the “% Inhibition” value is on record as 3% and the Z score was -0.35.
Turning to `COc1ccncc1CN[C@H]1CCc2cccnc2CC1`, the “% Inhibition” value is on record as -6% and the Z score is 0.84.
Turning to `COCC1(O)CN(C(=O)C(C)(C)C2CCC(O)CC2)C1` (stereo not given), the “% Inhibition” value was 2% and the Z score is listed as -0.29.
On to `Cc1ccc(NC(=O)N[C@@H](C)C(=O)O)c(C)c1`, for which the “% Inhibition” value was 0% and the Z score stood at 0.02.
With `O=C(C[C@H]1C(=O)NCCN1Cc1ccoc1)NCCc1cscn1`, the “% Inhibition” value is listed as -18% and the Z score is 1.66.
As for `CC(=O)Nc1ccc(S(=O)(=O)NCCc2cn(C)c3ncccc23)cc1`, the “% Inhibition” value is -16% and the Z score is on record as 1.87.
With `FC(F)(F)c1cc(-c2ccncc2)nc2c1c(-c1ccc(Cl)cc1)nn2-c1ccc(Cl)cc1`, the “% Inhibition” value is -9% and the Z score is recorded as 0.87.
